# Source: the supplement of paper PMC8728848
# The other results are listed elsewhere or left out.
# What was measured:
# Assay in all cases: glycan array binding signal (z-score within array); higher = stronger binding
# Details in all cases: glycan notation: IUPAC condensed, linker removed; mutation: D325A
# [1] = target: Man(a1-3)[Man(a1-6)]Man(a1-6)[Man(a1-2)Man(a1-3)]Man(b1-4)GlcNAc(b1-4)GlcNAc
# Method in brief: (§1)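 Columns mapping to the same glycan were averaged after glycan names were converted to IUPAC-condensed notation. The data come from 3228 arrays in the Consortium for Functional Glycomics database, limited to those with an available protein sequence. Binding is reported as a within-array Z-score averaged across arrays of one protein sequence and across linkers.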
# [2] = target: Man(a1-3)[Man(a1-6)]Man(a1-6)[Man(a1-3)]Man
# Method in brief: as §1
# [3] = target: Man(a1-3)[Man(a1-6)]Man(a1-6)[Man(a1-3)]Man(b1-4)GlcNAc(b1-4)GlcNAc
# Method in brief: as §1
# [4] = target: Man(a1-3)[Man(a1-6)]Man(b1-4)GlcNAc(b1-4)GlcNAc
# Method in brief: as §1
# Man(a1-6)Man = target: Man(a1-6)Man
# Method in brief: as §1
# Man(b1-4)GlcNAc = target: Man(b1-4)GlcNAc
# Method in brief: as §1
# Neu5Ac(a2-3)Gal = target: Neu5Ac(a2-3)Gal
# Method in brief: as §1
# [5] = target: Neu5Ac(a2-3)Gal(b1-3)GalNAc
# Method in brief: as §1
# [6] = target: Neu5Ac(a2-3)Gal(b1-3)GalNAc(b1-3)Gal(a1-4)Gal(b1-4)Glc
# Method in brief: as §1
# [7] = target: Neu5Ac(a2-3)Gal(b1-3)GalNAc(b1-3)Gal(b1-4)GlcNAc
# Method in brief: as §1
# [8] = target: Neu5Ac(a2-3)Gal(b1-3)GalNAc(b1-4)[Neu5Ac(a2-3)]Gal(b1-4)Glc
# Method in brief: as §1
# [9] = target: Neu5Ac(a2-3)Gal(b1-3)GalNAc6S
# Method in brief: as §1
# [10] = target: Neu5Ac(a2-3)Gal(b1-3)GlcNAc
# Method in brief: as §1
# [11] = target: Neu5Ac(a2-3)Gal(b1-3)GlcNAc(b1-3)Gal(b1-3)GlcNAc
# Method in brief: as §1
# [12] = target: Neu5Ac(a2-3)Gal(b1-3)GlcNAc6S
# Method in brief: as §1
# [13] = target: Neu5Ac(a2-3)Gal(b1-3)[Fuc(a1-4)]GlcNAc
# Method in brief: as §1
# [14] = target: Neu5Ac(a2-3)Gal(b1-3)[Fuc(a1-4)]GlcNAc(b1-3)Gal(b1-4)[Fuc(a1-3)]GlcNAc
# Method in brief: as §1
# [15] = target: Neu5Ac(a2-3)Gal(b1-3)[Neu5Ac(a2-3)Gal(b1-4)]GlcNAc
# Method in brief: as §1
# [16] = target: Neu5Ac(a2-3)Gal(b1-3)[Neu5Ac(a2-6)]GalNAc
# Method in brief: as §1
# Neu5Ac(a2-3)Gal(b1-4)Glc = target: Neu5Ac(a2-3)Gal(b1-4)Glc
# Method in brief: as §1
# [17] = target: Neu5Ac(a2-3)Gal(b1-4)GlcNAc
# Method in brief: as §1
# [18] = target: Neu5Ac(a2-3)Gal(b1-4)GlcNAc(b1-2)Man(a1-3)[GlcNAc(b1-2)Man(b1-4)GlcNAc(b1-2)Man(a1-6)]Man(b1-4)GlcNAc(b1-4)GlcNAc
# Method in brief: as §1
# [19] = target: Neu5Ac(a2-3)Gal(b1-4)GlcNAc(b1-2)Man(a1-3)[Neu5Ac(a2-6)Gal(b1-4)GlcNAc(b1-2)Man(a1-6)]Man(b1-4)GlcNAc(b1-4)GlcNAc
# Method in brief: as §1
# [20] = target: Neu5Ac(a2-3)Gal(b1-4)GlcNAc(b1-3)Gal(b1-3)GlcNAc
# Method in brief: as §1
# [21] = target: Neu5Ac(a2-3)Gal(b1-4)GlcNAc(b1-3)Gal(b1-4)GlcNAc
# Method in brief: as §1
# [22] = target: Neu5Ac(a2-3)Gal(b1-4)GlcNAc(b1-3)Gal(b1-4)GlcNAc(b1-3)Gal(b1-4)GlcNAc
# Method in brief: as §1
# [23] = target: Neu5Ac(a2-3)Gal(b1-4)GlcNAc(b1-3)Gal(b1-4)[Fuc(a1-3)]GlcNAc
# Method in brief: as §1
# [24] = target: Neu5Ac(a2-3)Gal(b1-4)GlcNAc(b1-6)[Gal(b1-3)]GalNAc
# Method in brief: as §1
# [25] = target: Neu5Ac(a2-3)Gal(b1-4)GlcNAc(b1-6)[Neu5Ac(a2-3)Gal(b1-3)]GalNAc
# Method in brief: as §1
# [26] = target: Neu5Ac(a2-3)Gal(b1-4)GlcNAc6S
# Method in brief: as §1
# [27] = target: Neu5Ac(a2-3)Gal(b1-4)[Fuc(a1-3)]GlcNAc
# Method in brief: as §1
# [28] = target: Neu5Ac(a2-3)Gal(b1-4)[Fuc(a1-3)]GlcNAc(b1-3)Gal
# Method in brief: as §1
# [29] = target: Neu5Ac(a2-3)Gal(b1-4)[Fuc(a1-3)]GlcNAc(b1-3)Gal(b1-4)GlcNAc
# Method in brief: as §1
# [30] = target: Neu5Ac(a2-3)Gal(b1-4)[Fuc(a1-3)]GlcNAc(b1-3)Gal(b1-4)[Fuc(a1-3)]GlcNAc(b1-3)Gal(b1-4)[Fuc(a1-3)]GlcNAc
# Method in brief: as §1
# [31] = target: Neu5Ac(a2-3)Gal(b1-4)[Fuc(a1-3)]GlcNAc(b1-6)[Gal(b1-3)]GalNAc
# Method in brief: as §1
# [32] = target: Neu5Ac(a2-3)Gal(b1-4)[Fuc(a1-3)]GlcNAc6S
# Method in brief: as §1
# [33] = target: Neu5Ac(a2-3)Gal6S(b1-4)GlcNAc
# Method in brief: as §1
binder,measurement,setting,value
Surfactant Protein D (Human); Neck + Carbohydrate Recognition Domain (NCRD) (Homo sapiens) (protein) MLLFLLSALVLLTQPLGYLEAEMKTYSHRTMPSACTLVMCSSVESGLPGRDRDGREGPRGEKGDPGLPGAAGQAGMPGQAGPVGPKGDNGSVGEPGPKGDTGPSGPPGPPGVPGPAGREGALGKQGNIGPQGKPGPKGEAGPKGEVGAPGMQGSAGARGLAGPKGERGVPGERGVPGNTGAAGSAGAMGPQGSPGARGPPGLKGDKGIPGDKGAKGESGLPDVASLRQQVEALQGQVQHLQAAFSQYKKVELFPNGQSVGEKIFKTAQFVKPFTEAQLLCTQAGGQLASPRSAAENAALQQLVVAKNEAAFLSMTDSKTEGKFTYPTGESLVYSNWAPGEPNDAGGSEDCVEIFTNGKWNDRACGEKRLVVCEF,glycan array binding signal (z-score),[1],4.71
same,glycan array binding signal (z-score),[2],4.73
same,glycan array binding signal (z-score),[3],4.2
same,glycan array binding signal (z-score),[4],3.67
same,glycan array binding signal (z-score),Man(a1-6)Man,0.67
same,glycan array binding signal (z-score),Man(b1-4)GlcNAc,0.278
same,glycan array binding signal (z-score),Neu5Ac(a2-3)Gal,-0.276
same,glycan array binding signal (z-score),[5],-0.247
same,glycan array binding signal (z-score),[6],-0.268
same,glycan array binding signal (z-score),[7],-0.242
same,glycan array binding signal (z-score),[8],-0.254
same,glycan array binding signal (z-score),[9],-0.273
same,glycan array binding signal (z-score),[10],-0.273
same,glycan array binding signal (z-score),[11],-0.234
same,glycan array binding signal (z-score),[12],-0.169
same,glycan array binding signal (z-score),[13],-0.272
same,glycan array binding signal (z-score),[14],0.08
same,glycan array binding signal (z-score),[15],-0.264
same,glycan array binding signal (z-score),[16],-0.245
same,glycan array binding signal (z-score),Neu5Ac(a2-3)Gal(b1-4)Glc,-0.228
same,glycan array binding signal (z-score),[17],-0.265
same,glycan array binding signal (z-score),[18],-0.265
same,glycan array binding signal (z-score),[19],-0.275
same,glycan array binding signal (z-score),[20],-0.266
same,glycan array binding signal (z-score),[21],-0.269
same,glycan array binding signal (z-score),[22],-0.095
same,glycan array binding signal (z-score),[23],-0.237
same,glycan array binding signal (z-score),[24],-0.265
same,glycan array binding signal (z-score),[25],-0.27
same,glycan array binding signal (z-score),[26],-0.256
same,glycan array binding signal (z-score),[27],-0.204
same,glycan array binding signal (z-score),[28],-0.275
same,glycan array binding signal (z-score),[29],-0.228
same,glycan array binding signal (z-score),[30],0.115
same,glycan array binding signal (z-score),[31],-0.178
same,glycan array binding signal (z-score),[32],-0.242
same,glycan array binding signal (z-score),[33],-0.273
